From PubChem BioAssay AID1645887 (National Center for Advancing Translational Sciences (NCATS), 2021) come the findings set out here.

“And” between values parts separate entries of the source, which are not always exact repeats. Equal entries are not always repeated. Among all 16,000 compounds or so, about 40 (0.2%) were called active. Another 1% or so got no clear call; they are omitted. The call rests on the fitted dose curve; in most records, active means well fitted activation curve with a large enough effect; inconclusive means small, poorly fitted or top-dose-only effect, or another doubt; inactive means no such curve, though single readings can be large or run the other way. This is one part of the list.
On the % scale 0 is the no-effect control and ±100 the full control effect.

Chain of UniProt Q8WZA2 (Q8WZA2 whole entry, looked up): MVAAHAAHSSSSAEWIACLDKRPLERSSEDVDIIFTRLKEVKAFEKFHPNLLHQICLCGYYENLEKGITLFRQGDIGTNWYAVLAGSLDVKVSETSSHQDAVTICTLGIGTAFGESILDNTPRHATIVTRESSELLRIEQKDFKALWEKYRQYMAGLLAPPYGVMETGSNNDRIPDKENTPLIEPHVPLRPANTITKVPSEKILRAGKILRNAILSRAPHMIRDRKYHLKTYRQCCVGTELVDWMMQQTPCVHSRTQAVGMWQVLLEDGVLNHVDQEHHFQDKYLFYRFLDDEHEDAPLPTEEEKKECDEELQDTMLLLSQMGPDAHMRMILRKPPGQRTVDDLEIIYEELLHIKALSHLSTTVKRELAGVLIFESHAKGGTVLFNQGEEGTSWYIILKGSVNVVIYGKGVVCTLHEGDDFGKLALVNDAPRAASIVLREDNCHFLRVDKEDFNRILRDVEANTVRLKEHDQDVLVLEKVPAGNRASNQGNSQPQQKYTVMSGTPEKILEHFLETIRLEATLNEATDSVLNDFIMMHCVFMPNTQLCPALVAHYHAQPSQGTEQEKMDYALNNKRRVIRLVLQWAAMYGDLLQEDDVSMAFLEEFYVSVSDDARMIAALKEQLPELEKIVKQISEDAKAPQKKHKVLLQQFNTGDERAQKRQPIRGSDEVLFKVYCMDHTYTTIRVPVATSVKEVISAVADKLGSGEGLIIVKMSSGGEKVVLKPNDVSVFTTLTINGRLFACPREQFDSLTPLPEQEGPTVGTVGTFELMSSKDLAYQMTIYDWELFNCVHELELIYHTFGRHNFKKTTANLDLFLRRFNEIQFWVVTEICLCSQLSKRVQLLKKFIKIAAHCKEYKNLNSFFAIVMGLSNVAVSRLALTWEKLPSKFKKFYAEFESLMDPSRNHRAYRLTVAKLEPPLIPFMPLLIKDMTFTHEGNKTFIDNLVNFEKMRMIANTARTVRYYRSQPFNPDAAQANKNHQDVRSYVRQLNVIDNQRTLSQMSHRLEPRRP

The test concerns the target Rap guanine nucleotide exchange factor 4 (Homo sapiens) (UniProt Q8WZA2). As to the kind of experiment: Validation qHTS for agonist of cAMP-regulated guanine nucleotide exchange factor 4 (EPAC2).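 Further: exchange makes BODIPY-GDP fluorescence drop when released from Rap1B; series mostly up to about 150 µM.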 The following applies: EPAC2 Rap1B BODIPY-GDP exchange, fluorescence; activation: active compounds read high. In short, it runs like this:
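Signal normalized against 6.5 mM cAMP as agonist control. Mix of EPAC2 (100 nM), RAP1B-BODIPY-GDP (250 nM) and GDP (50 uM) was read kinetically at 480/540 nm, every 5 min over 30 min, after 5 min room-temperature incubation with compound.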
A general note: qHTS replaces the single test concentration by a dilution series.
Consider `CCCN1CCC[C@@H](c2cccc(O)c2)C1`, for which the activation is inactive: -16.6%.
For `C/C(=C\[C@@H](N)C(=O)O)CP(=O)(O)O`, the activation is inactive: 15.9%.
In the case of `CC1/C=C/C=C/CC/C=C/C=C/C=C/C=C/C(OC2OC(C)C(O)C(N)C2O)CC2O[C@](O)(CC(O)C(O)CCC(O)CC(O)CC(O)CC(=O)OC(C)C(C)C1O)CC(O)C2C(=O)O` (stereo partly drawn), the activation is inactive: 4.57%.
As for `O=C1CN=C(c2ccccc2)c2cc([N+](=O)[O-])ccc2N1`, the activation was inactive: -24.6%.
On to `CC[C@]12CCCN3CCC4(c5ccccc5NC4C(C(=O)O)C1)C32` (stereo partly drawn), for which the activation is inactive: -27.5%.
`C[C@]12CCC(=O)C=C1CCc1ccc(O)cc12`: the activation is inactive: -6.53%.
Take `Clc1ccc(N2CC3CCC(C2)N3)nn1`: the activation was inactive: -40.9%.
For `CCCCCN(C)CCC(O)(P(=O)(O)O)P(=O)(O)O`, the activation is inactive: -5.23% and inactive: -20%.
For the compound `Cc1cccc(C)c1NC1=NCCCS1`, the activation was inactive: 16.4% and inactive: 18.9% and inactive: -40.1%.
Take `Nc1ccc(N)cc1`: the activation was inactive: -17.1%.
As for `COc1ccc2c(c1O)-c1cc(O)cc3c1[C@@H](C2)N(C)CC3`, the activation was inactive: 6.95%.
Turning to `CC(=O)O[C@H]1C[C@H](O[C@H]2[C@@H](O)C[C@H](O[C@H]3[C@@H](O)C[C@H](OC4CC[C@@]5(C)[C@H](CC[C@@H]6[C@@H]5CC[C@]5(C)[C@@H](C7=CC(=O)OC7)CC[C@]65O)C4)O[C@@H]3C)O[C@@H]2C)O[C@H](C)[C@H]1O[C@@H]1O[C@H](CO)[C@@H](O)[C@H](O)[C@H]1O` (stereo partly drawn), the activation was inactive: -6.18%.
For the compound `CC(C)C[C@H]1C(=O)N2CCC[C@H]2[C@]2(O)O[C@](NC(=O)[C@@H]3C[C@@H]4c5cccc6[nH]cc(c56)C[C@H]4N(C)C3)(C(C)C)C(=O)N12`, the activation was inactive: 7.01%.
As to `CCC(N)Cc1c[nH]c2ccccc12` (stereo not drawn), the activation is inactive: -4.8% and inactive: -19.5%.
Next, `O=c1cccc2n1CC1CC2CN(CCO)C1` (stereo not drawn): inactive: -9.32%; `C[C@@H]1O[C@@H](O[C@H]2C[C@@H](O)[C@]3(CO)[C@@H]4C(CC[C@]3(O)C2)[C@@]2(O)CC[C@H](C3=CC(=O)OC3)[C@@]2(C)C[C@H]4O)[C@H](O)[C@H](O)[C@H]1O` (stereo partly drawn): inactive: 10.9% and inactive: -11.2%.
For `CC(C)(O)[C@H]1O[C@@H]2CC[C@]3(C)[C@@]4(C)c5[nH]c6ccccc6c5C[C@@H]4CC[C@]3(O)C2=CC1=O`, the activation is inactive: -37.9%.
For the compound `CN1CCc2cc3c(cc2C1C1OC(=O)c2c1ccc1c2OCO1)OCO3` (stereo not drawn), the activation is inactive: -3.64% and inactive: 16.2%.
Consider `CC[C@H](Oc1ccc(Cl)cc1)C(=O)OC1C[C@H]2CC[C@@H](C1)N2C` (stereo partly drawn), for which the activation was inactive: -7.14%.
With `CCCCC/C=C\C/C=C\C/C=C\C/C=C\CCCC(=O)Nc1ccc(O)cc1`, the activation is inactive: -58.9%.
For the compound `O=C(/C=C\c1ccc(Cl)cc1)N[C@@]12CCC(=O)[C@@H]3Oc4c(O)ccc5c4[C@@]31CCN(CC1CC1)[C@@H]2C5`, the activation was inactive: -14.3%.
Next, `CCNC(=O)[C@H]1O[C@@H](n2cnc3c(N)ncnc32)[C@H](O)[C@@H]1O`: inactive: -6.22% and inactive: -6.21% and inactive: -31.1%; `COc1ccc(C[C@H]2NC[C@H](O)[C@@H]2OC(C)=O)cc1`: inactive: -11.8%; `O=C(O)/C=C\CO`: inactive: -5.88%.
Take `C[C@@H]1[C@@H]2Cc3ccc(O)cc3[C@@]1(C)CCN2CCc1ccccc1`: the activation is inactive: 0.171%.
Regarding `[N-]=[N+]=NCCN1CCC(O)CCC1=O` (stereo not drawn), the activation is inactive: -26.2%.
As to `CC(=O)Oc1ccc(Cl)c2cccnc12`, the activation is inactive: -5.48%.
In the case of `COc1ccc(C(=O)c2c(C)n(CCN3CCOCC3)c3cc(I)ccc23)cc1`, the activation is inactive: 6.23%.
To `O=S(=O)(c1ccc(Cl)cc1)c1ccc(Cl)cc1` belongs inactive: -20.2%; to `c1ccc(N2CCC3(CCNCC3)CC2)cc1`, inactive: 4.43%.
With `COC(=O)C(Cl)C(=O)OC`, the activation is inactive: -20.1%.
For the compound `O=C(c1ccncc1)N1CCC2(CC1)CN(Cc1ccccc1)C2`, the activation is inactive: -10.5%.
Next, `CN1CC[C@@]2(C)c3cc(OC(=O)Nc4ccccc4)ccc3N(C)[C@@H]12`: inactive: 4.17% and inactive: -19%.
Take `Oc1ccc(Cl)cc1`: the activation is inactive: -20.1% and inactive: 5.79%.
To `CC(C)c1c(CN(C)C(C)Cc2ccccc2)n(C)n(-c2ccccc2)c1=O` (stereo not drawn) belongs inactive: -1.26%; to `N#CCCN`, inactive: -28.7%; to `CCCCCCCCCCCCCC(=O)O[C@@H]1[C@@H](C)[C@@]2(O)[C@@H](C=C(CO)C[C@@]3(O)C(=O)C(C)=C[C@@H]23)C2C(C)(C)[C@@]21OC(C)=O` (stereo partly drawn), inactive: -81.7%.
As for `C[C@]12CC[C@@H](O)C[C@H]1CC[C@@H]1[C@H]2CC[C@]2(C)C(=O)CC[C@@H]12`, the activation is inactive: -0.28%.
For the compound `N[C@@H](Cc1ccc(Oc2cc(I)c(O)c(I)c2)c(I)c1)C(=O)O`, the activation is inactive: -16.5%.
As for `CNC(=O)Oc1cccc2c1OC(C)(C)O2`, the activation is inactive: -5.04%.
`O=c1[nH]c(=O)n(Cl)c(=O)n1Cl`: the activation is inactive: -0.789%.
For `CC(C)NC(=O)N1CCC2(CC1)CCN(C(=O)Oc1ccccc1)CC2`, the activation was inactive: -16.7%.
For `CCCCN(CC)c1c([N+](=O)[O-])cc(C(F)(F)F)cc1[N+](=O)[O-]`, the activation was inactive: 6.04%.
For the compound `CN1CC[C@@]2(C)c3cc(O)ccc3N(C)[C@@H]12`, the activation is inactive: 1.23%.
For `CC(=O)OC1CCC23C(=O)OC45CCC(C6=CC(=O)OC6)C4(C)CCC2C5CCC3(O)C1` (stereo not drawn), the activation is inactive: -5.48%.
Regarding `CC1=CC(=O)C2=C(C)C[C@H](O)[C@H]3[C@H](C)C(=O)O[C@@H]3C12` (stereo partly drawn), the activation was inactive: -0.705%.
To `CC(C)NC(C)C` belongs inactive: -19.1%; to `COC(=O)CN1CN(c2ccccc2)C2(CCN(Cc3ccc4ccccc4c3)CC2)C1=O`, inactive: 0.277%.
In the case of `CC(C)(O)C1C2OC(=O)C1[C@]1(O)CC3O[C@@]34C(=O)OC2[C@@]14C` (stereo partly drawn), the activation is inactive: -3.36%.
In the case of `C=C(C)[C@H]1O[C@H]2CC[C@@]3(C)[C@@](O)(CC[C@H]4[C@@H]5OC(C)(C)[C@H]6C[C@@H]7C(=C)Cc8c(Cl)cc9[nH]c(c5c9c8[C@@]76O)[C@@]43C)[C@]23O[C@@H]3[C@H]1O`, the activation is inactive: -11.5%.
Turning to `COc1cc2c(cc1OC)C(C)NCC2` (stereo not drawn), the activation is inactive: -13.7% and inactive: -3.89%.
For `COc1ccccc1CN1CC[C@@]2(CCCN(C(=O)Oc3ccccc3)C2)C1`, the activation was inactive: -5.3%.
Next, `NC(=O)CN1CCCC1=O`: inactive: -15.6% and inactive: 3.64% and inactive: -34.4%; `CC(=O)NBr`: inactive: -19.7%.
In the case of `C=CCN1CCC2(C)c3cc(O)ccc3CC1C2C` (stereo not drawn), the activation was inactive: 9.6%.
For the compound `CC(=O)Oc1c2c(c(CC=C(C)C)c3c1C(=O)C1=CC4CC5C(C)(C)OC(C/C=C(\C)C(=O)O)(C4=O)[C@]15O3)OC(C)(CCC=C(C)C)C=C2` (stereo partly drawn), the activation is inactive: -49.1%.
With `CCC1(c2cnc[nH]2)Cc2ccccc2C1`, the activation is inactive: 7.66% and inactive: -12.6%.
In the case of `O=C(O)COc1ccccc1`, the activation was inactive: 12.5%.
Regarding `CC1=C2CC3C(CC=C4C[C@@H](O)CC[C@@]43C)[C@@H]2CC[C@]12O[C@@H]1C[C@H](C)CN[C@H]1[C@H]2C` (stereo partly drawn), the activation was inactive: 6.83%.
Turning to `CN(C)c1ccc(C=C2C(=O)NC(=O)NC2=O)cc1`, the activation is inactive: -26.8%.
`Clc1ccc(CCC(Cn2ccnc2)Sc2c(Cl)cccc2Cl)cc1` (stereo not drawn): the activation is inactive: -11.4%.
In the case of `ClCCN(CCCl)c1ccc(C=Nc2ccc(/C=C/c3ccncc3)cc2)cc1`, the activation is inactive: -15%.
Consider `CCON=O`, for which the activation was inactive: -6.72%.
Turning to `CC1CC(C)C(=O)[C@H](C(O)CC2CC(=O)NC(=O)C2)C1` (stereo partly drawn), the activation was inactive: -10.7%.
As to `CC(C)NP(=O)(NC(C)C)OP(=O)(NC(C)C)NC(C)C`, the activation was inactive: 2.8%.
Next, `C[N+](C)(C)CCOC(=O)C(O)(c1ccccc1)c1ccccc1`: inactive: -6.81%.
Consider `C[C@@H]1O[C@H](O[C@@H]2C[C@@H](O)[C@]3(CO)[C@H]4[C@H](O)C[C@]5(C)[C@@H](C6=CC(=O)OC6)CC[C@@]5(O)[C@@H]4CC[C@]3(O)C2)[C@@H](O)[C@H](O)[C@H]1O`, for which the activation is inactive: -10.7%.
Regarding `Cc1c2ccncc2c(C)c2c1[nH]c1ccccc12`, the activation was inactive: -7.25% and inactive: -0.629%.
On to `CC(=O)OCC(=O)[C@H]1CC[C@H]2[C@@H]3CC[C@H]4C[C@H](O)CC[C@]4(C)[C@H]3C(=O)C[C@]12C`, for which the activation is inactive: -3.62%.
To `CC(C)(O)[C@@H]1C2OC(=O)[C@@H]1[C@]1(O)C[C@H]3O[C@]34C(=O)O[C@H]2[C@]14C` (tested in a mixture with another compound) belongs inactive: -28.7%; to `O=S1(=O)N(CCN2CC=C(c3c[nH]c4cc(F)ccc34)CC2)c2cccc3c2N1CCC3`, inactive: -48.4%.
Turning to `NC[C@H](CS(=O)(=O)O)c1ccc(Cl)cc1`, the activation is inactive: -6.43%.
`N#CC(C#N)=Cc1ccc([N+](=O)[O-])c(O)c1`: the activation is inactive: -6.77% and inactive: 4.2%.
On to `O=C(CCCN1CCC2(CC1)C(=O)N(Cc1cccc(F)c1)CN2c1ccccc1)c1ccc(F)cc1`, for which the activation was inactive: 3.2% and inactive: 11.6%.
Take `c1ccc2c(c1)[nH]c1cnccc12`: the activation is inactive: -11.9%.
Next, `c1cc2c(c(NC3=NCCN3)c1)CCCC2`: inactive: -20.4%.
Consider `CN1CCCC2(CCN(C(=O)c3ccncc3)CC2)C1`, for which the activation is inactive: -6.17%.
With `CS(=O)(=O)N1CCC2(CC1)CN(Cc1ccncc1)C2`, the activation was inactive: -1.96%.
